The supplement of paper PMC4604168 (melanoma cell lines)
Some of the results follow. Repeats are few or missing, and single values can be far off.

test system: 501Mel; test: cell count relative to DMSO control; melanoma cells; higher = more viable cells; conditions: library dose: low library concentration; 72 h
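Note: cell number obtained by counting DAPI-stained nuclei in high-throughput microscope images with image analysis software, screen run in 1,536-well plates.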

Row | SMILES | cell count
1 | O=C(Nc1cc(C(F)(F)F)cc(C(F)(F)F)c1)c1cc(Cl)ccc1O + Cc1nc(Nc2ncc(C(=O)Nc3c(C)cccc3Cl)s2)cc(N2CCN(CCO)CC2)n1 [dasatanib] (first compound 0.016 µM, partner dose 0.004 µM) | 95.6%
2 | O=C(O)c1ccc2c(c1)nc(Nc1cccc(Cl)c1)c1ccncc12 + CCCS(=O)(=O)Nc1ccc(F)c(C(=O)c2c[nH]c3ncc(Cl)cc23)c1F [PLX4720] (first compound 0.4 µM, partner dose 0.08 µM) | 89.1%
3 | O=C(Nc1cc(C(F)(F)F)cc(C(F)(F)F)c1)c1cc(Cl)ccc1O + Nc1nc(F)nc2c1ncn2[C@@H]1O[C@H](CO)[C@@H](O)[C@@H]1O [fludarabine] (first compound 0.016 µM, partner dose 0.2 µM) | 1.84%
4 | O=C(O)c1ccc2c(c1)nc(Nc1cccc(Cl)c1)c1ccncc12 + O=C(Nc1cccc(Cl)c1)Nc1ncc(CCNc2ncnc3ccsc23)s1 [SNS314] (first compound 0.4 µM, partner dose 0.0008 µM) | 108%
5 | O=C(O)c1ccc2c(c1)nc(Nc1cccc(Cl)c1)c1ccncc12 + C=C(c1ccc(C(=O)O)cc1)c1cc2c(cc1C)C(C)(C)CCC2(C)C [Bexarotene] (first compound 0.4 µM, partner dose 2 µM) | 145%
6 | O=C(O)[C@@H]1[O][Sb](=[O])([O][Sb]2(=[O])[O][C@H]([C@H](O)CO)[C@H](O)[C@H](C(=O)O)[O]2)[O][C@H]([C@H](O)CO)[C@@H]1O (stereo partly drawn) [stibogluconate] + CS(=O)(=O)CCNCc1ccc(-c2ccc3ncnc(Nc4ccc(OCc5cccc(F)c5)c(Cl)c4)c3c2)o1 [lapatinib] (first compound 2 µM, partner dose 0.8 µM) | 99.7%
7 | O=C(O)c1ccc2c(c1)nc(Nc1cccc(Cl)c1)c1ccncc12 + NCC(=O)Nc1ccc(-n2nc(C(F)(F)F)cc2-c2ccc3c(ccc4ccccc43)c2)cc1 [OSU03012] (first compound 0.4 µM, partner dose 1 µM) | 53.8%
8 | O=C(Nc1cc(C(F)(F)F)cc(C(F)(F)F)c1)c1cc(Cl)ccc1O + CNC(=O)c1cc(Oc2ccc(NC(=O)Nc3ccc(Cl)c(C(F)(F)F)c3)cc2)ccn1 [sorafenib] (first compound 0.016 µM, partner dose 0.4 µM) | 83.1%
